Test results from the supplement of paper PMC9135407.
Where “and” joins values, the source holds several entries; their conditions need not be identical. Equal entries are not always repeated. Structures can show the parent of a compound that is named as a salt. Out of some 5,800 compounds screened, about 620 (11%) showed activity.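 Rule for the calls: active = score above a cut-off or among the top three wells of a plate; in these data no inactive exceeds 0.85.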 The list shows a part of the results, in another mix than the full data.

System: primary human hepatic stellate cells (donor 1)
Experiment: scaled lipid accumulation score (0 = DMSO-like, 1 = nortriptyline-like); higher = stronger HSC inactivation (lipid re-accumulation), active = hit call of the paper
Settings: 48 h
[1] = library stock concentration: 10 mM
[2] = library stock concentration: 3.33 mM
[3] = library stock concentration: 1 mM
[4] = library stock concentration: 6 mM

## Cc1cc(/C(=C/Nc2ccc(Cl)cc2)C(=O)Nc2ccc(Cl)cc2)on1
[1]
  scaled lipid accumulation score: inactive: 0.332

## CCCn1c(=O)c2c(ncn2C)n(CCC)c1=O [1,3-Dipropyl-7-methylxanthine]
[1]
  scaled lipid accumulation score: inactive: ≤ -0.07

## CC(C)COCC(CN(Cc1ccccc1)c1ccccc1)N1CCCC1.Cl (stereo unspecified)
Library stock concentration: 12.4 mM
  scaled lipid accumulation score: active: 0.96

## C[C@H]1C[C@H]2[C@@H]3CCC4=CC(=O)C=C[C@]4(C)[C@@]3(F)[C@@H](O)C[C@]2(C)[C@@]1(O)C(=O)CO [Betamethasone]
  scaled lipid accumulation score: inactive: 0.042
[2]
  scaled lipid accumulation score: inactive: ≤ 0
Library stock concentration: 4 mM
  scaled lipid accumulation score: inactive: ≤ 0
[1]
  scaled lipid accumulation score: inactive: ≤ 0

## CCCCCC=CCC=CCC=CCC=CCCCC(=O)OCC(O)CO (stereo unspecified) [1-Arachidonoyl Glycerol]
[3]
  scaled lipid accumulation score: inactive: 0.012

## C=C1/C(=C\C=C2/CCC[C@]3(C)[C@@H]([C@H](C)/C=C/[C@@H](O)C4CC4)CC[C@@H]23)C[C@@H](O)C[C@@H]1O [Calcipotriol]
[1]
  scaled lipid accumulation score: inactive: 0.022

## C=C1/C(=C\C=C2/CCC[C@]3(C)[C@@H]([C@H](C)/C=C/[C@@H](O)C4CC4)CC[C@@H]23)C[C@@H](O)C[C@@H]1O [Calcipotriene]
Library stock concentration: 4.8 mM
  scaled lipid accumulation score: inactive: ≤ -0.006

## Cc1ccc(Cl)c(Nc2ccccc2C(=O)O)c1Cl [Meclofenamate (sodium salt)]
[3]
  scaled lipid accumulation score: inactive: 0.041

## Cc1ccc(Cl)c(Nc2ccccc2C(=O)O)c1Cl [Meclofenamate Sodium]
[2]
  scaled lipid accumulation score: inactive: ≤ 0
[1]
  scaled lipid accumulation score: inactive: ≤ -0.001

## Cc1ccc(Cl)c(Nc2ccccc2C(=O)O)c1Cl [Meclofenamate sodium]
Library stock concentration: 6.3 mM
  scaled lipid accumulation score: inactive: 0.011

## Cc1ccc(Cl)c(Nc2ccccc2C(=O)O)c1Cl [Meclomen]
[1]
  scaled lipid accumulation score: inactive: ≤ 0

## Cc1ccc(Cl)c(Nc2ccccc2C(=O)O)c1Cl [Meclofenamic acid sodium]
[1]
  scaled lipid accumulation score: inactive: 0.133

## Cc1ccc(Cl)c(Nc2ccccc2C(=O)O)c1Cl [Meclofenamic acid sodium salt monohydrate]
  scaled lipid accumulation score: inactive: ≤ 0

## O=C(NCCO[N+](=O)[O-])c1cccnc1
[1]
  scaled lipid accumulation score: inactive: ≤ 0

## O=C(NCCO[N+](=O)[O-])c1cccnc1 [Nicorandil]
  scaled lipid accumulation score: inactive: ≤ 0
[2]
  scaled lipid accumulation score: inactive: ≤ 0
Library stock concentration: 9.5 mM
  scaled lipid accumulation score: inactive: ≤ -0.006
[1]
  scaled lipid accumulation score: inactive: ≤ 0 and inactive: 0.022

## CN(C)CCOc1ccc(/C(=C(/CCCl)c2ccccc2)c2ccccc2)cc1
[1]
  scaled lipid accumulation score: inactive: ≤ 0

## CN(C)CCOc1ccc(/C(=C(/CCCl)c2ccccc2)c2ccccc2)cc1 [Toremifene]
Library stock concentration: 4.9 mM
  scaled lipid accumulation score: inactive: 0.264

## CN(C)CCOc1ccc(/C(=C(/CCCl)c2ccccc2)c2ccccc2)cc1 [Toremifene Citrate]
[2]
  scaled lipid accumulation score: inactive: 0.112

## O=C1Nc2ccc(I)cc2C1=Cc1cc(Br)c(O)c(Br)c1
[2]
  scaled lipid accumulation score: inactive: ≤ 0
[1]
  scaled lipid accumulation score: inactive: 0.083

## CCN1CCN(C(=O)N[C@@H](C(=O)N[C@@H]2C(=O)N3C(C(=O)O)=C(CSc4nnnn4C)CS[C@H]23)c2ccc(O)cc2)C(=O)C1=O [Cefoperazone]
[2]
  scaled lipid accumulation score: inactive: ≤ 0
[1]
  scaled lipid accumulation score: inactive: ≤ 0

## CCN1CCN(C(=O)N[C@@H](C(=O)N[C@@H]2C(=O)N3C(C(=O)O)=C(CSc4nnnn4C)CS[C@H]23)c2ccc(O)cc2)C(=O)C1=O [Cefoperazone sodium]
Library stock concentration: 3 mM
  scaled lipid accumulation score: inactive: ≤ 0
[1]
  scaled lipid accumulation score: inactive: ≤ 0

## CCN1CCN(C(=O)N[C@@H](C(=O)N[C@@H]2C(=O)N3C(C(=O)O)=C(CSc4nnnn4C)CS[C@H]23)c2ccc(O)cc2)C(=O)C1=O [Cefoperazone dihydrate]
  scaled lipid accumulation score: inactive: ≤ 0

## CCN1CCN(C(=O)N[C@@H](C(=O)N[C@@H]2C(=O)N3C(C(=O)O)=C(CSc4nnnn4C)CS[C@H]23)c2ccc(O)cc2)C(=O)C1=O [Cefoperazone acid]
Library stock concentration: 3.1 mM
  scaled lipid accumulation score: inactive: ≤ 0

## O=C(c1cn(Cc2cncn2Cc2ccc(Br)cc2)cc1-c1cccc2ccccc12)N1CCOCC1
[2]
  scaled lipid accumulation score: inactive: ≤ -0.003
[1]
  scaled lipid accumulation score: inactive: 0.723

## CO[C@@]12[C@H](COC(N)=O)C3=C(C(=O)C(C)=C(N)C3=O)N1C[C@@H]1N[C@@H]12 [Mitomycin c]
[4]
  scaled lipid accumulation score: inactive: ≤ -0.006 and inactive: 0.044
[1]
  scaled lipid accumulation score: inactive: 0.129

## CO[C@@]12[C@H](COC(N)=O)C3=C(C(=O)C(C)=C(N)C3=O)N1C[C@@H]1N[C@@H]12 [Mitomycin C]
Library stock concentration: 15 mM
  scaled lipid accumulation score: inactive: ≤ -0.012

## CC(C(=O)O)c1ccc(N2Cc3ccccc3C2=O)cc1 (stereo unspecified) [Indoprofen]
  scaled lipid accumulation score: inactive: ≤ 0
Library stock concentration: 7.1 mM
  scaled lipid accumulation score: inactive: ≤ -0.001
[1]
  scaled lipid accumulation score: inactive: ≤ 0

## Cc1cc(Nc2ncnc3ccc(-c4ccc(CNCCS(C)(=O)=O)o4)cc23)ccc1Oc1ccn2ncnc2c1 [HER2-Inhibitor-1]
[2]
  scaled lipid accumulation score: inactive: 0.203

## CC1=Nc2ccc(Cl)cc2S(=O)(=O)N1 [Diazoxide]
  scaled lipid accumulation score: inactive: ≤ 0
Library stock concentration: 8.7 mM
  scaled lipid accumulation score: inactive: ≤ -0.006 and inactive: ≤ 0
[1]
  scaled lipid accumulation score: inactive: ≤ -0.07 and inactive: 0.029 and inactive: 0.015
Library stock concentration: 21.7 mM
  scaled lipid accumulation score: inactive: ≤ -0.021

## CC1=Nc2ccc(Cl)cc2S(=O)(=O)N1
[1]
  scaled lipid accumulation score: inactive: ≤ 0

## C1CCN2C[C@@H]3C[C@@H](CN4CCCC[C@@H]34)[C@H]2C1 [Sparteine (-)]
  scaled lipid accumulation score: inactive: ≤ 0

## C1CCN2C[C@@H]3C[C@@H](CN4CCCC[C@@H]34)[C@H]2C1 [Sparteine sulfate]
[4]
  scaled lipid accumulation score: inactive: ≤ -0.001
[1]
  scaled lipid accumulation score: inactive: 0.072

## c1cc2c(cc1C1CCCCC1)c1c3n2CCNC3CCC1 (stereo unspecified) [Tetrindole mesylate]
[1]
  scaled lipid accumulation score: inactive: ≤ 0

## COc1ccccc1S(=O)(=O)Nc1ccc2c(c1)CN(C)C(=O)N2
Library stock concentration: 80 uM
  scaled lipid accumulation score: inactive: ≤ 0
Library stock concentration: 400 uM
  scaled lipid accumulation score: inactive: ≤ 0
Library stock concentration: 2 mM
  scaled lipid accumulation score: inactive: ≤ 0
[2]
  scaled lipid accumulation score: inactive: ≤ 0
[1]
  scaled lipid accumulation score: inactive: 0.299 and inactive: ≤ 0

## CC[C@@H]1C(=O)N(C)c2cnc(Nc3ccc(C(=O)N[C@H]4CC[C@H](N5CCN(CC6CC6)CC5)CC4)cc3OC)nc2N1C(C)C [Volasertib]
[1]
  scaled lipid accumulation score: active: 1.17

## COc1ccc2c(OC)c3ccoc3nc2c1OC [Skimmianine]
  scaled lipid accumulation score: inactive: ≤ 0

## CC1CC(OC(=O)C(O)c2ccccc2)CC(C)(C)N1C (stereo unspecified) [Eucatropine hydrochloride]
  scaled lipid accumulation score: inactive: ≤ 0
Library stock concentration: 6.1 mM
  scaled lipid accumulation score: inactive: ≤ -0.001
[1]
  scaled lipid accumulation score: inactive: ≤ 0
